In all, about 310,000 compounds went through this assay and about 2,200 (0.71%) showed an effect of 50% or more. Effects have a minus sign here. Some of the results follow. Where a SMILES comes first, the peptide text is derived from it. [ ]: non-standard residue; d: D form. The star is where a group is joined. ξ: configuration not given here. Cbz = O=C(OCc1ccccc1)*; ξS = NC(CO)C(=O)O
Each molecule was assayed against human ether-à-go-go-related gene (hERG) potassium channel (human, UniProt Q12809) (assay: primary screen, population patch clamp on CHO cells stably expressing hERG).
Chain of human ether-à-go-go-related gene (hERG) potassium channel (Q12809 whole entry, looked up): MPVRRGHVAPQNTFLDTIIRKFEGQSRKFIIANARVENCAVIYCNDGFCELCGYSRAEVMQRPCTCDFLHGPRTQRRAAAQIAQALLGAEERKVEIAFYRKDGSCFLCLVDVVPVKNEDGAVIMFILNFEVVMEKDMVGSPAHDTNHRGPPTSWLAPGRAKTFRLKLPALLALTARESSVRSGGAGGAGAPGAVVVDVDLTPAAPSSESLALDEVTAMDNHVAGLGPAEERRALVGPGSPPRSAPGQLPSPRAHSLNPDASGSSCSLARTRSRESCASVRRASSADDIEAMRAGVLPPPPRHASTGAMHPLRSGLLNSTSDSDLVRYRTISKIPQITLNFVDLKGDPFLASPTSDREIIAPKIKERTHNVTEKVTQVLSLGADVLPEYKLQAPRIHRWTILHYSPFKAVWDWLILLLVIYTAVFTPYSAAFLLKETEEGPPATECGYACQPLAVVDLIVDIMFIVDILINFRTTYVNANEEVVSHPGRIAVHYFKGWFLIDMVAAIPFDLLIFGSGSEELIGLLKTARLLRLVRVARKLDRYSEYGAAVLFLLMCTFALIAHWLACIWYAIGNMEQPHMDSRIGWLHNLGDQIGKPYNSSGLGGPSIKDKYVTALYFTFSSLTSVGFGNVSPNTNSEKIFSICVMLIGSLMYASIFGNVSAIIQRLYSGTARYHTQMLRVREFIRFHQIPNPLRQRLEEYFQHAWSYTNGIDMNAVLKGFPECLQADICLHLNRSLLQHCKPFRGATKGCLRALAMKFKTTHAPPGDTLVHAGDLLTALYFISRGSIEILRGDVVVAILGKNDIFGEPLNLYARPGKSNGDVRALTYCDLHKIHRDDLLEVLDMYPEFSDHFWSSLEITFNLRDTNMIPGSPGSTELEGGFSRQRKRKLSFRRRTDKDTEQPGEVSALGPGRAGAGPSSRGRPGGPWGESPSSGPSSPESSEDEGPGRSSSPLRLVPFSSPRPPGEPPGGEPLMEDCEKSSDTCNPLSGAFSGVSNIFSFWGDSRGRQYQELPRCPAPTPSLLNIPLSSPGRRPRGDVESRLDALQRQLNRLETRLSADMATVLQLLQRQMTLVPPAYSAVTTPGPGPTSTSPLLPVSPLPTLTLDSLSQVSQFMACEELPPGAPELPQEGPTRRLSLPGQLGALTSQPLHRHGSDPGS

SMILES	hERG current change (%, negative = inhibition) at 1uM
Cc1ccc(CN2CCN(Cc3ccccc3)C(CCO)C2)s1 (stereo not drawn)	-26.7%
Cc1ccnc(NC(=O)C2CC(=O)N(c3ccc4c(c3)OCCO4)C2)c1 (stereo not drawn)	12.7%
CC1(C)CC2(CCO1)OC(=O)CC2C(=O)Nc1ccccc1Cl (stereo not drawn)	9.95%
N=c1c(C(=O)NCc2ccco2)cc2c(=O)n3ccccc3nc2n1Cc1ccc(Cl)cc1	-55.7%
COc1ccc(C)cc1Nc1cc(C)nc2nc(C)nn12	-0.35%
C=CCn1c(COC)nnc1SCC(=O)c1ccc(F)cc1	5.03%
CCOC(=O)c1ccc(NC(=O)CSc2nnnn2CCCO)cc1	-0.423%
O=C(COc1ccccc1[N+](=O)[O-])N/N=C/C=C/c1ccco1	5.63%
CC(C)/C=C/CN1CCC(Oc2ccc(C(=O)N3CCCC3)cc2)CC1	-1.2%
COc1ccc(/C=C/c2nc3cc(-c4ccccc4)ccc3o2)cc1O	9.24%
CN1CCN(c2ccc(NC(=O)c3ccc(C#N)cc3F)cc2Cl)CC1	-10.9%
COc1ccc([N+](=O)[O-])cc1/C=N/NC(=O)Cc1ccccc1	12.4%
COC(=O)c1cccc(NC(=O)C23CC4CC(C2)CC(n2cncn2)(C4)C3)c1	-5.4%
CCOC(=O)CNC(=O)C(CO)NC(=O)OCc1ccccc1 (stereo not drawn) (Cbz-[ξS]-Gly-OEt)	9.46%
CCCNC(=O)c1ccc(N2CCC3(CC2)CC(c2cccc(Br)c2)=NO3)c(NC(=O)c2ccc(Cl)c([N+](=O)[O-])c2)c1	2.42%
CCCCNC(=O)c1cn(-c2ccc(OCC)cc2)c(=O)c2cc(OC)c(OC)cc12	10.1%
N/C(=N\OC(=O)c1cccc(F)c1)c1cccc([N+](=O)[O-])c1	19.1%
CCN1C(=O)[C@@H]2[C@@H](c3ccc(-c4ccc(C(C)=O)cc4)cc3)N3CCC[C@@]3(C(=O)OC)[C@@H]2C1=O.O=C(O)C(F)(F)F	-2.75%
NC(=O)c1cn(-c2ccccc2)nc1-c1cc2ccccc2oc1=O	-8.14%
COc1ccc(/C=N/NC(=O)CN2CCS(=O)(=O)CC2)cc1	6.08%
O=C(O)c1ccc(N/N=C/c2ccc(-c3ccc(Br)cc3)o2)cc1	6.3%
Cc1cc(OCC(=O)NCC2CCC(C(=O)O)CC2)c2c3c(c(=O)oc2c1)CCC3 (stereo not drawn)	12.5%
O=C(O)c1cccc(NC(=S)NC(=O)C(c2ccccc2)c2ccccc2)c1	5.58%
CCOC(=O)c1ccc(NC(=O)CC2C(=O)N(c3ccc(F)cc3)C(=O)N2CCCOC)cc1 (stereo not drawn)	-2.1%
O=C(NC1CCS(=O)(=O)C1)Oc1ccccc1 (stereo not drawn)	12.9%
CCOc1ccc(C(C#N)N2CCOCC2)cc1OC (stereo not drawn)	14.3%
CN(CC(=O)NCc1cccs1)S(=O)(=O)c1cccc2nsnc12	12.4%

SMILES	hERG current change (%, negative = inhibition) at 1uM
O=C(CSc1ncnc2c1cnn2-c1ccc(F)cc1)NC1CCCC1	11.4%
CCCNC(=O)C(Cc1ccc(Br)cc1)NC(=O)c1ccc(C#N)cc1 (stereo not drawn)	5.8%
COc1cccc(/C=N/n2cnc3ccccc32)c1OC	12.8%
CC(C)c1ccc(NC(=O)C2CCCCC2C(=O)O)cc1 (stereo not drawn)	5.18%
CCCCCCn1c(COc2ccccc2F)nnc1SCC(=O)N1c2ccccc2NC(=O)C1(C)C	5.95%
CCOC(=O)Cc1csc(NC(=O)c2ccc(F)cc2)n1	13.9%
COc1ccccc1N1CCN(Cc2cc(OC)c3c(c2)OCO3)CC1	10.7%
CCOC(=O)C(=CNc1ccc(NC2=NCC(C)S2)cc1)C(=O)OCC (stereo not drawn)	5.36%
Cc1cc(NC(=O)CSc2nnc3c(C)cc4cc(C)c(C)cc4n23)no1	11.6%
Cl.O=C(NN1CCN(Cc2ccccc2Cl)CC1)c1ccc(Br)cc1	10.2%
CN(CCOc1ccc(Cl)cc1)C(=O)C1CCN(C(=O)c2ccc(Cl)cc2)CC1	-37%
CCC1(C)Cc2c(sc(NC(=O)CCC(=O)O)c2C#N)CO1 (stereo not drawn)	9.25%
CC1CCN(C(=O)COc2cccc3c2CCN(Cc2ccccc2)C3=O)CC1	-2.61%
COc1cc(CNCc2c[nH]c3ccccc23)cc(OC)c1	10.8%
CCOC(=O)c1cc(-c2ccc(N3CCOCC3)cc2)nn1-c1ccccc1C(=O)O	9.57%
COc1ccc(-c2cc(=O)c3c(O)c(OC)c(O)cc3o2)cc1	0.229%
CCS(=O)(=O)c1ccc2oc(Nc3cc(C)cc(C)c3)nc2c1	-6.52%
Cc1cccn2c(=O)c3cc(C#N)c(=NC(=O)c4ccco4)n(Cc4ccco4)c3nc12	-30.9%
COc1ccc(CN(C)CC(=O)N(C)CC(=O)Nc2ccccc2Br)cc1F	0.78%
CC(=O)Nc1cccc([N+](=O)[O-])c1	13.1%
COC(=O)[C@]1(C)CCC[C@@]2(C)C3CC[C@]4(OC(C)=O)C[C@@]3(CCC21)CC4=O (stereo partly drawn)	9.38%
COc1cc(/C=C/C(=O)c2ccc(NS(=O)(=O)c3ccc(C)cc3)cc2)ccc1OC(F)F	13.7%
CCN1C(=O)/C(=C/N(C)C)c2ccccc21	-1.72%
O=Cc1ccccc1-c1cn(CN2C(=O)c3ccccc3C2=O)nn1	8.75%
CCN(CC)C(=O)c1ccc(NC(=O)c2cc(-n3cnnc3)ccc2Cl)cc1	13.9%
CCOc1cc(C(=O)N/N=C/c2ccsc2)cc(OCC)c1OCC	7.19%
CCC1=NN2C(=N)/C(=C\c3cccn3-c3c(C)cccc3C)C(=O)N=C2S1	-10.1%
